According to PubChem BioAssay AID686978 (National Center for Advancing Translational Sciences (NCATS), 2013):
Several values for one entry are separate records, joined by “and”; a condition that tells them apart may be missing. Equal entries are not always repeated. The campaign covered roughly 420,000 compounds. About 64,000 (15%) were called active. The shares of active, inactive and inconclusive entries below differ from those in the screen. Calls follow the shape of the dose curve; as a rule, active = well fitted inhibition curve with a large enough effect; inconclusive = small, poorly fitted or top-dose-only effect; inactive = flat fitted curve, though single readings scatter. Potencies beside an inconclusive call are fits to weak or partial responses and may not hold up.

Assay: qHTS for Inhibitors of human tyrosyl-DNA phosphodiesterase 1 (TDP1): qHTS in cells in absence of CPT; also: nearly all actives have a fitted effect of over 55% in size
Conditions: DT40 Tdp1-/- hTDP1 cells, no CPT, ATP luminescence, 48 h; activity change, negative = growth inhibition: at 46.2 µM (top of the series) unless noted
Outline: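 Cells were dispensed at 400 per well, compounds added by pin tool, plates incubated ≥48 hr at 37 °C, then CellTiter-Glo added for 30 min at room temperature before luminescence reading. Line: DT40 Tdp1-/- complemented with hTDP1; camptothecin omitted.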
% is scaled to controls: 0 for no effect and ±100 for the full control effect; potency is read from the fitted curve at half-maximal effect; tags tell the direction and shape of the fitted curve.

Row | SMILES | Potency | activity change, negative = growth inhibition
1 | CC(=O)n1cc([C@@H]2C=C(C(=O)N3CCN(Cc4ccc5c(c4)OCO5)CC3)O[C@H](OCCCCO)C2)c2ccccc21 | inconclusive: 18.4 µM [inhibitor, partial curve] | 
2 | C=CCc1cc(OC)ccc1OCC(O)CN1CCN(c2ccc(OC)cc2)CC1 (stereo unspecified) | inconclusive: 10.3 µM [inhibitor, partial curve] and inconclusive: 23.1 µM [inhibitor, single point] | 
3 | CCOc1ccccc1NC(=O)Cc1cccs1 |  | inactive: -17.5%
4 | O=C(Cn1c(-c2cncs2)nc2ccccc21)NC1CCCC1 |  | inactive: -9.17%
5 | COc1ccc(N(CC(=O)Nc2cccc(C(C)=O)c2)S(=O)(=O)c2ccc(NC(C)=O)cc2)cc1 |  | inactive: -29.6%
6 | O=S(CC1CC1(Cl)Cl)CC1CC1(Cl)Cl (stereo unspecified) |  | inactive: 2.5%
7 | Cc1onc(-c2ccccc2Cl)c1C(=O)NCc1nc(-c2ccc(C(F)(F)F)cc2)no1 | active: 14.6 µM | 
8 | CN(C(=O)c1cccc(NC(=O)C2CCCN(C(=O)OC(C)(C)C)C2)c1)C1CCC1 (stereo unspecified) | active: 16.4 µM | 
9 | O=c1cc(-c2ccccc2)c2ccc(O)cc2o1 | inconclusive: 10.3 µM [inhibitor, partial curve, poor fit] | 
10 | COC(=O)CN1C(=S)N(c2ccc(Cl)cc2)C(=O)C1CC(=O)Nc1ccc(F)cc1 (stereo unspecified) | inconclusive: 29.1 µM [inhibitor, single point] | 
11 | Cc1c(C(=O)N2CCCC(C)(C(=O)NS(=O)(=O)C3CC3)C2)oc2ccccc12 (stereo unspecified) | active: 4.11 µM | 
12 | CCOP(=O)(OCC)C(Nc1cccc([N+](=O)[O-])c1)c1ccc(N(C)C)cc1 (stereo unspecified) | inconclusive: 9.2 µM [inhibitor, partial curve] | 
13 | COc1ccccc1NC(=O)CC1SC(=N)N(c2ccccc2)C1=O (stereo unspecified) | inconclusive: 29.1 µM [inhibitor, single point] | 
14 | Cc1oc2cc(Br)c(O)c(Br)c2c1-c1ccccc1 | inconclusive: 16.4 µM [inhibitor, single point] | 
15 | O=C(NCCCN1CCOCC1)c1cc(-c2ccc3c(c2)OCO3)nc2ccccc12 | inconclusive: 16.4 µM [inhibitor, partial curve] | 
16 | COCCNS(=O)(=O)c1cc(Br)ccc1OC |  | inactive: 8.91%
17 | CCn1c(CC(=O)Nc2ccccc2)nnc1SCC(=O)Nc1nnc(C)s1 | inconclusive: 5.8 µM [inhibitor, single point] | 
18 | CCOc1ccc(-n2c(=O)c3sc4ccccc4c3n(Cc3ccc(F)cc3)c2=O)cc1 | inconclusive: 29.1 µM [inhibitor, single point] | 
19 | COC(=O)/C(C#N)=C/c1c(N2CCN(c3ccc(OC)cc3)CC2)nc2c(C)cccn2c1=O | inconclusive: 16.4 µM [inhibitor, single point] | 
20 | O=C(Nc1cccc2cccnc12)c1ccc2sc([C@H]3C[C@H](O)[C@@H](CO)O3)nc2c1 | inconclusive: 16.4 µM [inhibitor, single point] | 
21 | CCOc1ccc(CCNC(=O)CN2C(=O)NC3(CCc4ccccc43)C2=O)cc1OCC (stereo unspecified) |  | inactive: -0.071%
22 | O=C(CN1CC[n+]2c(-c3ccccc3)csc21)c1ccc(Br)cc1 | active: 2.06 µM | 
23 | Cc1ccc(NC(=S)NNC(=O)CSc2nnc(-c3ccc(Cl)cc3)n2C2CCCCC2)cc1 | inconclusive: 29.1 µM [inhibitor, single point] | 

Row | SMILES | Potency | activity change, negative = growth inhibition
24 | Cc1cccc(N/N=C2/COC(C)(C)CC2=O)c1 |  | inactive: -19.1%
25 | CC(C)c1ccccc1OCCCCCN1CCOCC1 |  | inactive: -6.66%
26 | CCn1c(SCC(=O)Nc2ccc(C)c(C)c2)nnc1-c1nonc1NC(C)=O |  | inactive: -25.5%
27 | COCCCNc1ncnc2c1nnn2C |  | inactive: -4.61%
28 | COc1cccc(/C=C2\SC(=O)N(CCC(=O)N3CCCCC3CCO)C2=O)c1 (stereo unspecified) | inconclusive: 29.1 µM [inhibitor, single point] | 
29 | c1ccc(CSc2ncnc3c2oc2ccccc23)cc1 | inconclusive: 18.4 µM [inhibitor, single point] | 
30 | CCCCC(CC)Cn1c(Oc2ccccc2)nc2c1c(=O)n(C)c(=O)n2C (stereo unspecified) | inconclusive: 23.1 µM [inhibitor, single point] | 
31 | Cc1cccc(NC(=O)c2sc3nc(C)nc(N4CCOCC4)c3c2C)c1 | inconclusive: 25.9 µM [inhibitor, single point] | 
32 | CCOC(=O)C1CSc2[nH]c(=O)sc2C1c1ccccc1 (stereo unspecified) | inconclusive: 22.4 µM [inhibitor, single point] | 
33 | CCc1nc(SCC(=O)Nc2nccs2)c2oc3ccccc3c2n1 | inconclusive: 9.2 µM [inhibitor, partial curve] | 
34 | CCn1c(SCC(=O)NC(=O)NCc2ccco2)nc2sc(C)c(C)c2c1=O | inconclusive: 20.6 µM [inhibitor, single point] | 
35 | COc1ccc(CCC(C)NCC2CCCCC2)cc1 (stereo unspecified) | active: 18.4 µM | 
36 | O=C(Cn1c(=O)n(CCC(=O)N2CCc3ccccc3C2)c(=O)c2ccccc21)NCC1CCCO1 (stereo unspecified) |  | inactive: -16.9%
37 | Cc1cccn2c(CNC3CCCc4ccccc43)c(C(=O)N3CCCCC3)nc12 (stereo unspecified) | inconclusive: 23.1 µM [inhibitor, single point] | 
38 | C/C(=C\c1ccccc1)CN1CCC(C(=O)N2CCCC(C)C2)CC1 (stereo unspecified) | inconclusive: 29.1 µM [inhibitor, single point] | 
39 | Cc1cc(C)nc(N(C#N)CN2C(=O)c3ccccc3S2(=O)=O)n1 | active: 14.6 µM | 
40 | Cc1cccc2sc(NC(=O)c3ccc(NS(=O)(=O)c4cccs4)cc3)nc12 |  | inactive: -29.3%
41 | OC(c1ccc(F)c(F)c1)c1ncc(-c2ccccc2F)[nH]1 (stereo unspecified) | inconclusive: 18.4 µM [inhibitor, single point] | 
42 | CCOC(=O)C1(C(=O)OCC)CCN(S(=O)(=O)c2ccccc2)CC1 |  | inactive: 5.05%
43 | Cc1ccc(N(CC(=O)Nc2ccc(OC(F)(F)F)cc2)S(=O)(=O)c2c(C)noc2C)cc1 | active: 18.4 µM | 
44 | COc1ccc(O)c(CN2CCC3(CCC(CNC(=O)c4ccccc4)O3)CC2)c1 (stereo unspecified) |  | inconclusive: -33.5% [inhibitor]
45 | COc1ccc2[nH]cc(CCNC(=O)Cc3ccc(F)cc3)c2c1 |  | inactive: 1.65%
46 | CS(=O)(=O)Oc1ccc2c(c1)O/C(=C\C=C\c1ccccc1)C2=O | inconclusive: 23.1 µM [inhibitor, single point] | 
